Results on one compound are retold here after PubChem BioAssay AID2060363 (Molecular Pharmacology Branch, DTP, NCI, 2025).

Not every entry of the source has a single result; some have several. This list holds those alone. There may be further records. Values that stand side by side are repeats across runs, samples, wells, individuals or studies.

One may read the IC50 as the point on the concentration scale where inhibition reaches its midpoint.

This test has as its system 156681-154-R-J1-PDC tumor spheroids, viability % test/control. Put plainly: Anticancer human tumor 156681-154-R-J1-PDC patient-derived melanoma cell line growth inhibition [TAK]. Conditions: compound alone; spheroids with HUVEC and MSC. An excerpt:
Combinatorial screen of targeted agents with TAK-243 and ipatasertib in multi-cell type tumor spheroids
A high-throughput screen of multi-cell type tumor spheroids was designed to identify active combinations of targeted small molecules and TAK-243 or ipatasertib. Complex spheroids include a stromal component modeled by human endothelial cells (HUVEC) and fibroblasts modeled by human mesenchymal stem cells (MSCs). The concentration ranges selected for each drug and investigational agent were based upon clinically achievable concentrations if the clinical Cmax of the agent was known.
Compounds. […] If the clinical Cmax for an agent had not been determined, the highest concentration tested was 10 microM.
NCI60 Cell Culture. […] The optimal seeding densities for each of the cell lines at each time point assessed were determined prior to performing the concentration response studies. […]
For the pre-screen, cell seeding densities were determined from a titration spanning the range from 5,000 to 313 cells per well. […]
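Note: spheroids exposed to compounds for 7 days before the endpoint.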

With `CCCS(=O)(=O)Nc1ccc(F)c(C(=O)c2c[nH]c3ncc(-c4ccc(Cl)cc4)cc23)c1F`, the concentration for half-maximal inhibition (IC50) was > 100 µM and 9.07 µM.
